Screen size: about 310,000 compounds; about 2,200 (0.71%) showed an effect of 50% or more. Effects have a minus sign here. The list shows a part of the results.
target: human ether-à-go-go-related gene (hERG) potassium channel (human, UniProt Q12809); test: primary screen, population patch clamp on CHO cells stably expressing hERG
Sequence (Q12809 whole entry, looked up): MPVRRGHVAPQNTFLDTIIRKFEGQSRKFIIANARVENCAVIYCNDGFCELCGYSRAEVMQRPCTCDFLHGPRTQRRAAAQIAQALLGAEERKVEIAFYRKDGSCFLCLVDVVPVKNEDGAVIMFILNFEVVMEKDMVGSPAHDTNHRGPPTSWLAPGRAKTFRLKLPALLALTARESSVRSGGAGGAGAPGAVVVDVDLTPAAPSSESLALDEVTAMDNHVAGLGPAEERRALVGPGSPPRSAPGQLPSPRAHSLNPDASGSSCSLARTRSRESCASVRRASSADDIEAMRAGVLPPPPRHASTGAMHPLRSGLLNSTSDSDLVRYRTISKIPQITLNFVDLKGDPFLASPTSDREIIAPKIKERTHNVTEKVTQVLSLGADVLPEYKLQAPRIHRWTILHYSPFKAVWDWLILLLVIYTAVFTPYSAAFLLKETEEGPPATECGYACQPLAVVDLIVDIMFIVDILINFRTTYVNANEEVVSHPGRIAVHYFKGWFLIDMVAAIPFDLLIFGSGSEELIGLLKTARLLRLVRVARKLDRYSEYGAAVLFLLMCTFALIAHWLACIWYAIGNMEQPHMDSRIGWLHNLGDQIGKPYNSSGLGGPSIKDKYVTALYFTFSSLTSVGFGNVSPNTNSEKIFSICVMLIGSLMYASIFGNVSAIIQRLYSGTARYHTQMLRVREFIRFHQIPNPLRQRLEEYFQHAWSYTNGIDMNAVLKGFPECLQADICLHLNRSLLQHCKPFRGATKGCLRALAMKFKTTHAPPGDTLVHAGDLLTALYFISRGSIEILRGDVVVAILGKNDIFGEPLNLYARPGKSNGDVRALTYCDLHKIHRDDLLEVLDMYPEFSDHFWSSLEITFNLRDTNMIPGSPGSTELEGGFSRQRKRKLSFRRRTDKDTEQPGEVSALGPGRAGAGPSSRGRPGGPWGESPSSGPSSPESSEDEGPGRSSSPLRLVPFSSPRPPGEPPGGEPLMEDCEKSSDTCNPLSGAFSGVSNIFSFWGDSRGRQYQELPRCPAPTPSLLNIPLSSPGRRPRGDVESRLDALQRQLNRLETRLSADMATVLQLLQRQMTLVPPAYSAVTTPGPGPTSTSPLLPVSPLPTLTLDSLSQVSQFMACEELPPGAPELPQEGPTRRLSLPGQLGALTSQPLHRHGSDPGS

Compound	hERG current change (%, negative = inhibition) at 1uM [%]
O=C(NCCN1CCOCC1)c1ccc(=O)n(Cc2ccc(Cl)cc2)c1	14.3
CCOC(=O)Cn1c(N)c(C(=O)OC)sc1=S	10.1
CCCCC(=O)Nc1ccc(C(N)=O)cc1	11.4
CC(=O)c1ccc(NC(=O)c2noc3c2CCC3)cc1	16.1
Br.COc1ccc(CNCc2ccc(F)cc2)c(OC)c1	-41.9
COc1cccc(NC(=O)c2ccccc2N(Cc2ccccc2)S(C)(=O)=O)c1	5.95
O=C(Nc1ccon1)c1ccc(N2CCCCC2)c([N+](=O)[O-])c1	9.77
CC[N+](CC)(CC#Cc1ccccc1)CC#Cc1ccccc1.[Br-]	-27.3
COc1ccc(C(=O)N(C)C2CCCCC2)cc1OC1CCN(C(C)C)CC1	4.29
O=C(NCCO)/C(=C\c1ccco1)NC(=O)c1cccs1	15.5
O=C(NCc1ccco1)c1cc(=O)c2ccccc2o1	15.9
Oc1ccccc1OCCOc1ccccc1OCCOc1ccccc1O	7.63
Cc1ccc(NC2CCCN(C(=O)Cc3nonc3C)C2)cc1C (centres unmarked)	20.8
COc1ccc(C(CC(=O)O)N2Cc3ccccc3C2=O)cc1OC (centres unmarked)	12.1
Cc1ccc(NC(=O)COC(=O)CN2C(=O)COc3ccccc32)cc1	13.2
O=C(NCc1nc2ccccc2[nH]1)C1=C[C@@H](c2ccc(Br)cc2)C[C@@H](OCc2ccc(CO)cc2)O1	-1.96
COc1cc2c(cc1OC)C1(Nc3c-2c(-c2ccccc2)nn3-c2ccccc2)C(=O)Nc2ccccc21 (centres unmarked)	13.3
CCOC(=O)COc1coc(CN2CCN(c3ccccc3)CC2)cc1=O	15.8
CC1CC(=O)C2=C(C1)Nc1ccccc1SC2c1ccc(F)cc1 (centres unmarked)	6.85
CCCCOC(=O)CCCc1ccc([N+](=O)[O-])cc1[N+](=O)[O-]	-3.62
CN(C)/C=C/C(=O)c1ccc(Cl)cc1Cl	12.1
COc1ccc(NC(=O)CCNS(=O)(=O)c2cccc3nsnc23)cc1	9.08
O=C(OCCNC(=O)c1ccc2ccccc2n1)c1cccnc1	-8.58

Compound	hERG current change (%, negative = inhibition) at 1uM [%]
CCn1c(/C=N/c2nc3ccccc3n2C)nc2ccccc21	-0.915
CCOC(=O)C(NC(=O)CC)(Nc1sc(C)c(CC)c1C#N)C(F)(F)F (centres unmarked)	-0.757
CC(NCc1ccc(F)cc1)C(=O)Nc1cc(S(=O)(=O)N2CCCCC2)ccc1Cl (centres unmarked)	4.54
Cc1ccc(OCC(=O)NS(=O)(=O)c2ccc(Cl)cc2)cc1	14.1
O=C(N1CCN(c2ccccc2)CC1)C1(S(=O)(=O)c2ccc(Cl)cc2)CC1	-12.4
COc1ccc2c(CC(=O)N[C@@H](Cc3ccccc3)C(=O)O)cc(=O)oc2c1	13.1
Cc1cccc(NC(=O)c2cc(NC(=O)C3CCCCC3C(=O)O)ccc2N2CCCCC2)c1 (centres unmarked)	-4.58
O=C(NCc1ccco1)c1ccc(C(=O)NCc2ccco2)s1	3.18
CNC(=O)c1cnc(-c2ccccc2)nc1-c1ccccc1	12.5
O=S(=O)(c1ccccc1)[C@@]1(c2ccc(Br)cc2)C[C@@H]2ON=C(c3cccc(Br)c3)[C@@H]2C1	-1.59
NC(=O)c1ccccc1NC(=O)CN1CCN(Cc2ccccc2)CC1	-77.7
COc1cccc(C(=O)Nc2cc(=O)n(C)c(=O)n2C)c1OC	11.4
CC(C)CC(C(=O)Nn1cnnc1)N1C(=O)c2ccccc2C1=O (centres unmarked)	9.33
Cc1cc(C)c(OCC(=O)NCC2COc3ccccc3O2)c(C)c1 (centres unmarked)	1.11
CCCn1c(=O)[nH]c(=O)c2c1nc(-c1ccc(C#N)cc1)n2CCOC	8.82
Cc1ccc2nsnc2c1N	10.9
COc1cc(C(=O)ON=C2C=C(C)C(=O)C(C)=C2)cc(OC)c1OC	2.11
CCOC(=O)C(=CNc1ccc2c(c1)nnn2-c1ccc(Cl)cc1)C(=O)OCC	1.84
CCCc1nc(SCC(=O)NC2CC2)c2c(C)c(C)sc2n1	-0.874
O=C(NC1CC1)C1CC(=O)N(c2cccc(Cl)c2Cl)C1 (centres unmarked)	13.1
c1ccc(-c2csc3nnc(SCc4ccc5c(c4)OCO5)n23)cc1	-14.3
CCCCCOC(=O)c1[nH]c2c(c1C)C(=O)C(C(=O)OC)C(C)C2 (centres unmarked)	14.9
Cc1ccccc1Cn1nc(C)c(NC(=O)C2c3ccccc3Oc3ccccc32)c1C	2.28

Compound	hERG current change (%, negative = inhibition) at 1uM [%]
CC(CN1CCN(Cc2ccccc2)CC1)OC(=O)c1ccco1.Cl (centres unmarked)	-3.97
C=CCOc1ccccc1CN(CCc1ccccc1)C(=O)c1cccc(S(C)(=O)=O)c1	-8.67
CC12CCC(=O)N1C(C(=O)OCC(=O)Nc1sccc1C#N)CS2 (centres unmarked)	7.17
CCN1C(=O)C(CC(=O)Nc2ccc(OC)cc2)N(CCc2ccccc2F)C1=S (centres unmarked)	9.05
CC(=O)/C(=N/Nc1ccccc1[N+](=O)[O-])N1CCCc2ccccc21	9.41
Cc1nc2cc(C)c(C)cc2s1	15.5
COC(=O)c1ccc(C(=O)OC)c(NC(=O)C(C)(C)C)c1	12.4
Cc1cc(C)c2c(-n3cccc3)c(C(=O)NNS(=O)(=O)c3ccc(Br)cc3)sc2n1	11.2
NC(=O)c1c(NC(=O)CN2C(=O)CCC2=O)sc2c1CCCCC2	12.1
O=C(Nc1ccccc1Br)c1ccc(OC(=S)N2CCOCC2)cc1	12.3
Cc1[nH]c(=O)[nH]c(=O)c1S(=O)(=O)N1CCOCC1	13.5
Nc1nnc(N2CCCCCC2)s1	-8.04
CCCCC(=O)Nc1cccc(-c2ccc3nncn3n2)c1	1.75
S=P(NC1CCCCC1)(N1CC1)N1CC1	13.4
CC(=O)Nc1ccc(NC(=O)C(C)OC(=O)c2cc(S(=O)(=O)N3CCOCC3)ccc2Cl)cc1 (centres unmarked)	9.26
CCOC(=O)c1nn(-c2ccc(Cl)cc2)c(C)cc1=O	12.1
COc1cc(CCC(=O)Nc2ccc(C)c(S(=O)(=O)N(C)C)c2)cc(OC)c1OC	6.52
COC(=O)c1ccc(NC(=O)N(c2ccccc2)c2ccccc2)cc1	13.2
CCOc1ccc2[nH]c(=S)[nH]c2c1	14.3
CS(=O)(=O)c1ccc(C(=O)NC2CCCc3ccccc32)cc1 (centres unmarked)	15.4
CCCCn1nc(C(=O)NCC(=O)Nc2c(C)cccc2C)c2ccccc2c1=O	-1.42
CN1C(=O)C(CC(=O)Nc2ccc(F)cc2)N(Cc2cccs2)C1=S (centres unmarked)	9.28
Cn1nc(CC(=O)Nc2cccc3ncccc23)c2ccccc2c1=O	2.04

Compound	hERG current change (%, negative = inhibition) at 1uM [%]
CC(=O)NC(CCCN1C(=O)c2ccccc2C1=O)c1nnn(C)n1 (centres unmarked)	12.7
CCN(CC)C(=O)Cn1cc(S(=O)(=O)CC(=O)NCCc2ccc(OC)c(OC)c2)c2ccccc21	11.1
CNc1cc(N2CCN(C)CC2)ccc1[N+](=O)[O-]	6.1
COc1ccccc1-n1cnnc1SCC(=O)NC1CCCC1	3.6
O=C(C1=C[C@H](C2CCCCC2)C[C@H](OCCCCO)O1)N1CCN(Cc2ccccc2)CC1	-9.59
Nn1c(SCC(=O)Nc2ccc(OC(F)F)cc2)nnc1-c1ccco1	1.71
CC1CCCCN1C(=O)COc1ccc(S(=O)(=O)N2CCCC2)cc1[N+](=O)[O-] (centres unmarked)	2.79
O=C(CN(c1ccccc1Cl)S(=O)(=O)c1ccccc1)N/N=C/c1ccccc1C(=O)O	13.6
COc1ccc(N(C(=O)c2ccco2)C(C(=O)NC2CCCCC2)c2ccccc2)cc1 (centres unmarked)	14.3
Cc1noc(/C=C/c2ccco2)c1S(=O)(=O)N1CCC(C(=O)N(C)Cc2ccccc2)CC1	2.38
Cc1nc2ccc(NC(=O)c3ccco3)cc2s1	8.97
COc1ccc(OC)c(N=c2ssnc2Cl)c1	1.47
CCOc1ccc(-n2c(SCC(=O)Nc3nccs3)nc3c(c2=O)SCC3)cc1	-0.546
O=C(c1ccc(Cl)c(F)c1F)N1CCCC1	11.8
CC(C)(C=O)C1=CC(=O)c2ccccc2C1=O	6.94
COc1ccc(-n2c(SCC(=O)Nc3nccs3)nc3c(c2=O)SC(C)C3)cc1 (centres unmarked)	2.22
CCN(CC(=O)NCc1ccc(Cl)cc1)C(=O)COc1ccc(C)cc1C	-43.8
CC(=O)Nc1ccc(C(=O)CN2C(=O)NC3(CCOc4ccccc43)C2=O)c(F)c1 (centres unmarked)	0.0215
O=C(C1CCN(S(=O)(=O)c2cccc3nsnc23)CC1)N1CCn2c1nc1ccccc12	2.78
NC(=O)C1CCN(c2nc(-c3ccc(F)cc3)cs2)CC1	9.59
